PubChem BioAssay AID1347073 (National Center for Advancing Translational Sciences (NCATS), 2019)
Hit rate of the full screen: of about 45,000 compounds, about 200 (0.44%) were called active. About 7% were inconclusive and are not listed. Calls follow the shape of the dose curve; as a rule, active = well fitted activation curve with a large enough effect; inconclusive = small, poorly fitted or top-dose-only effect; inactive = no such curve, though single readings can be large or run the other way. Some of the results follow.

Assay: qHTS of TDP-43 Inhibitors: NCGC Sytravon Library Screen; also: nearly all actives have a fitted effect of over 55% in size; as to growth rescue (activation): 0% is about no effect
Conditions: yeast TDP-43 toxicity rescue, BacTiter-Glo growth, 24 h; series mostly up to 46.1 µM; growth rescue (activation): at the top concentration
Method in brief: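 TDP-43-expressing yeast, pregrown in raffinose, seeded at OD600 0.02 in galactose medium with compound for 24 hr at 30 deg C. Growth read by BacTiter-Glo luminescence, so rescue of toxicity appears as activation.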
Potency is read from the fitted curve at half-maximal effect.

Structure (SMILES) | growth rescue (activation) | Potency
COc1ccc(NC(=O)CSc2nc3nc(-c4cccs4)cc(C(F)(F)F)c3c(=O)[nH]2)c(OC)c1 | inactive: 2.46% | 
O=C(Cn1nc(-c2ccccc2)c2ccccc2c1=O)NN1CCOCC1 | inactive: 4.21% | 
CCCN(CC(=O)Nc1ccccc1OC)C(=O)c1nc2nc(C)ccn2n1 | inactive: 12.1% | 
Cc1nnc(SCC(=O)N(Cc2ccccc2)C(C)C)n1-c1ccccc1 | inactive: 4.67% | 
O=C(CN(C(=O)CCC(=O)Nc1nccs1)c1ccccc1F)NCc1ccc2c(c1)OCO2 | inactive: 5.95% | 
CN1CCC(OC(=O)c2cc3cc(Br)ccc3oc2=O)CC1 | inactive: -11.6% | 
CC1CCN(C(=O)N[C@@H](Cc2ccccc2)C(=O)O)CC1 | inactive: -6.35% | 
CCOC(=O)C1(Cc2cccc(OC)c2)CCCN(C(=O)CSC)C1 (centres undefined) | inactive: -11.4% | 
N/C(=N\OC(=O)COc1ccc(Cl)cc1)c1ccc(Cl)cc1 | inactive: 3.14% | 
COc1ccc(-n2c(CN3CCN(c4ccc(F)cc4)CC3)nc3ccc([N+](=O)[O-])cc3c2=O)c(OC)c1 | inactive: 5.5% | 
COc1ccc(-n2c(C)cc(C(=O)CN3CCCCC3)c2C)cc1 | inactive: 8.79% | 
N#Cc1ccccc1NC(=O)COC(=O)CCc1ccc(S(=O)(=O)N2CCCCC2)cc1 | inactive: 10.4% | 
CCC(C)[C@H](NC(=O)Nc1cccc(Br)c1)C(=O)OC (some centres undefined) | inactive: 18.7% | 
CCn1c(SCC(=O)NCC2CCCO2)nnc1-c1c[nH]c2ccccc12 (centres undefined) | inactive: 11.5% | 
O=C1CCC/C(=N\NC(=O)COc2ccc(Cl)cc2)C1 | inactive: 11.9% | 
O=C(CN1CCN(S(=O)(=O)c2ccccc2)CC1)NC(=O)NCc1ccco1 | inactive: -0.105% | 
CCC(=O)Oc1cccc(C(=O)Nc2cccc(NC(=O)c3ccco3)c2)c1 | inactive: -6.39% | 
O=C(O)C1CCN(C(=O)CSc2nc3ccccc3c(=O)n2Cc2ccccc2)CC1 | inactive: 16.7% | 
Cc1ccccc1-c1cnn(-c2cccc([N+](=O)[O-])c2)c1N |  | active: 12.6 µM
CCCCOc1ccc(C2OC34CCCCC3C(C#N)(C#N)C2(C#N)C(=N)O4)cc1 (centres undefined) | inactive: 26.2% | 
Cc1ccsc1/C=C1\CCC(C2CCCC2)C1=O (centres undefined) | inactive: 7.88% | 
CCOc1cc2[nH]c(=O)n(CC3CCC(C(=O)NCCC(C)C)CC3)c(=O)c2cc1OCC (centres undefined) | inactive: 8.38% | 
CC(C)NC(=O)c1cc(C2CCCCN2S(=O)(=O)c2cccs2)on1 (centres undefined) | inactive: 10.4% | 
O=C(CCN1C(=O)/C(=C/c2ccc(Cl)cc2)SC1=S)Nc1cccnc1 | inactive: -7.38% | 
COc1cccc(/C=C/C(=O)c2ccc(NC3=NCCCS3)cc2)c1 | inactive: 8.31% | 
Cc1ccc(N(C(=O)CNC(=O)c2ccco2)C(C(=O)NC2CCCCC2)c2cccnc2)cc1 (centres undefined) | inactive: -4.84% | 

Structure (SMILES) | growth rescue (activation) | Potency
CCOc1cc(C2C(C#N)=C(N)OC3=C2C(=O)CC(C)(C)C3)cc([N+](=O)[O-])c1O (centres undefined) | inactive: -5.77% | 
Cc1ccc(NC(=O)c2cc([N+](=O)[O-])ccc2N2CCOCC2)cc1S(=O)(=O)N(C)C | inactive: -1.37% | 
COc1cc(/C=C/c2ccc3cccc([N+](=O)[O-])c3n2)ccc1OCC#N | inactive: 10.1% | 
O=S(=O)(Nc1ccc(S(=O)(=O)N2CCCC2)cc1)c1ccc(F)cc1F | inactive: -2% | 
CO/N=C/c1c(C(=O)OC)nn(-c2ccccc2)c1Cl | inactive: 26% | 
CCOC(=O)NNc1ccccc1 | inactive: 12.8% | 
CCCc1c(C)c2cccc(C)c2[nH]c1=O | inactive: 23.9% | 
CCOc1ccc(CN(C)C(C)C(=O)NCCc2ccc(F)cc2)cc1 (centres undefined) | inactive: 1.47% | 
CCN(CC(=O)NCc1ccc(F)cc1)C(=O)Cc1c(F)cccc1Cl | inactive: -3.63% | 
Cc1ccc(NS(=O)(=O)c2cc([N+](=O)[O-])ccc2NNC(=S)Nc2cccc(Cl)c2)c(C)c1 | inactive: 24.9% | 
COc1ccc(C(=O)Nc2nc3ccccc3[nH]2)cc1 | inactive: -41.5% | 
COc1ccc(S(=O)(=O)N2CCOCC2)cc1NC(=O)c1ccc(-n2nc(C)cc2C)cc1 | inactive: -9.1% | 
COc1ccc(-c2[nH]ncc2CN2CCN(c3ccccn3)CC2)c(OC)c1 | inactive: 11% | 
COc1ccc(C(=O)C2CCCN(C/C=C/c3ccccc3OC)C2)c(OC)c1 (centres undefined) | inactive: -7.58% | 
Cc1ccc(N(Cc2cc3ccccc3[nH]c2=O)S(C)(=O)=O)cc1 | inactive: -10.1% | 
CC(C)Oc1cc(N)c(Cl)cc1Cl | inactive: 13.1% | 
Cc1ccc2nc3c(c(Nc4ccc5c(c4)OCCO5)c2c1)CCC3 | inactive: -13.8% | 
CS(=O)(=O)N(CC(=O)N/N=C/c1cccc2c1OCCO2)c1ccccc1Br | inactive: 11% | 
O=C(Nc1cccc(-c2nc3ncccc3o2)c1)c1ccc2c(c1)OCO2 | inactive: -0.463% | 
COc1ccc([N+](=O)[O-])cc1NC(=O)CCN1CCN(CCO)CC1 | inactive: 20.7% | 
COc1ccc(-c2cn(-c3ccc(OC)cc3)c3[n+]2-c2ccccc2CC3)cc1 | inactive: 2.16% | 
CC1(C(=O)NS(=O)(=O)c2ccccc2)CCN1C(=O)c1ccccc1 (centres undefined) | inactive: -4.2% | 
Cn1c(=O)cc(C(=O)N/N=C/c2ccc(Cl)cc2)[nH]c1=O | inactive: -10.4% | 
CN1CCN(C(=O)c2cc3c(C(F)(F)F)nn(C)c3s2)CC1 | inactive: 7.58% | 
CN(C(=O)CSc1nnc(-c2cccs2)n1C1CC1)C1CCS(=O)(=O)C1 (centres undefined) | inactive: 10.6% | 
COC(=O)c1c(N2C(=O)CC(Sc3ncccc3C(=O)O)C2=O)sc(C)c1C (centres undefined) | inactive: -17.2% | 

Structure (SMILES) | growth rescue (activation) | Potency
OCCC1CN(Cc2cccc3nonc23)CCN1Cc1ccsc1 (centres undefined) | inactive: 27.7% | 
Cn1c(=O)c2cc(NC(=S)NCc3ccccc3F)ccc2n1Cc1ccc(F)cc1 | inactive: 0.523% | 
NC(=O)c1nsc(C(=O)N(c2ccccc2)C(C(=O)NC2CCCCC2)c2ccc(O)cc2)c1N (centres undefined) | inactive: -0.0568% | 
Cc1ccc(-c2cnc(C(O)c3cc(C)cc(C)c3)[nH]2)cc1 (centres undefined) | inactive: 14.3% | 
NC(=O)NC(CC(=O)NCc1ccc2c(c1)OCO2)c1ccccc1Cl (centres undefined) | inactive: 5.9% | 
COc1ccccc1Nc1cc(C(=O)NCc2cccnc2)c2ccccc2n1 | inactive: 5.63% | 
COc1ccc(C(=O)Nc2ccc(N3CCN(Cc4ccccc4)CC3)cc2)cc1 | inactive: -2.98% | 
CCOc1ccc(C(=O)NCC(=O)N2CCN(c3ccccc3O)CC2)cc1 | inactive: -2.5% | 
CCN1CCN(CCCNC(=O)CNC(=O)c2nn(-c3ccc(OC)cc3OC)c(=O)c3ccccc23)CC1 | inactive: 9.38% | 
Cc1ccc(-c2cc(C(=O)Nc3ccc(S(=O)(=O)Nc4ncccn4)cc3)c3ccccc3n2)cc1 | inactive: 17.1% | 
Cn1nc(C(=O)NC2CCCc3ccccc32)ccc1=O (centres undefined) | inactive: 1.39% | 
O=C(COC(=O)c1cccc(S(=O)(=O)NCc2ccccc2)c1)NCC1CCCO1 (centres undefined) | inactive: 5% | 
Cc1ccc(N(C(=O)CNC(=O)c2ccco2)C(C(=O)NC2CCCCC2)c2ccncc2)cc1F (centres undefined) | inactive: 5.32% | 
O=C(NCC1(c2ccccc2)CCCC1)c1ccc(Br)o1 | inactive: -8.54% | 
O=C(NCc1ccccn1)c1ccc(Cl)c(S(=O)(=O)Nc2ccccc2C(=O)NCc2ccccn2)c1 | inactive: -6.41% | 
O=C(O)c1cccc(S(=O)(=O)N(Cc2ccccc2)c2ccc(Cl)cc2)c1 | inactive: 10.2% | 
Cc1ccc(Cn2ncc(C)c2N)o1 | inactive: -28.6% | 
COc1cccc(/C=N/Nc2nc3ccccc3n3cnnc23)c1O | inactive: -0.257% | 
Cc1ccc(N=Cc2cc3c(cc2O)OC(N)=C(C#N)C3c2ccccc2)cc1 (centres undefined) | inactive: -24.2% | 
Cc1ccccc1C(=O)Nc1ccc(S(=O)(=O)N2CC(C)OC(C)C2)cc1 (centres undefined) | inactive: 1.03% | 
Cn1cnnc1SCc1ccc(C(=O)N/N=C/c2cccs2)cc1 | inactive: -12.3% | 
CCCOc1cccc(C(=O)NCCNC(=O)c2ccc(C)nc2)c1 | inactive: 10.1% | 
CS(=O)(=O)N1CCC(Oc2ccccc2C(=O)N2CCN(CC3CC3)CC2)CC1 | inactive: 12.6% | 
O=C(c1cccc(C(F)(F)F)c1)N1CCOC12CCN(c1ncc(C(F)(F)F)cc1Cl)CC2 | inactive: 29.8% | 
Cc1cccc(/C(N)=N/OC(=O)c2ccc3c(c2)OCO3)c1 | inactive: -93% | 
COc1ccc(CN(CCC(c2ccccc2)c2ccc(OC(C)C)cc2)C(=O)CCl)cc1OC (centres undefined) | inactive: 8.69% | 

Structure (SMILES) | growth rescue (activation) | Potency
CCOc1cc(NC(=S)NCCOC)c(OCC)cc1NC(=O)c1ccco1 | inactive: 9.36% | 
O=C(O)CCCCCN1C(=O)/C(=C/c2cn(-c3ccccc3)nc2-c2cccs2)SC1=S | inactive: -1.37% | 
COc1ccc2c(c1)-c1nc(NC(=O)c3ccccc3F)sc1CC2 | inactive: 13.5% | 
CCC(=O)N1CCN(C(C)=O)C1c1ccccc1 (centres undefined) | inactive: -2.56% | 
CCCc1cc(C(=O)N2CCC(N3CCC(C(=O)NC(C)C)CC3)CC2)n(C)n1 | inactive: 6.38% | 
O=C(NCC1CCCO1)c1cc2ccccc2oc1=O (centres undefined) | inactive: 6.86% | 
CCS(=O)(=O)c1ccc2oc(Nc3ccccc3Br)nc2c1 | inactive: 29.4% | 
CC1(C)CC(=O)C2=C(C1)OC(N)=C(C#N)C2c1cccs1 (centres undefined) | inactive: -3.97% | 
CCC(=O)NC(=S)Nc1cccc(-c2nc3ncccc3o2)c1 | inactive: -9.39% | 
C[C@H](NC(=O)c1ccccc1Cl)C(=O)NCc1cccs1 | inactive: 10.1% | 
O=C(Nc1cccnc1)c1ccc(NS(=O)(=O)c2cccc([N+](=O)[O-])c2)cc1 | inactive: 10.2% | 
CC(/C=N/NC(=O)c1cc(-c2ccc3ccccc3c2)n[nH]1)=C\c1ccco1 | inactive: 17.9% | 
NC(=O)COC(=O)/C=C/c1ccc(S(=O)(=O)N2CCCCCC2)cc1 | inactive: 13.4% | 
COc1ccc(NC(=O)Cc2c(Sc3ccccc3)c3ccccc3n2C)cc1 | inactive: -7.81% | 
CCOc1ccccc1NC(=O)C1CCCN(c2c(CC)c(C)nc3ncnn23)C1 (centres undefined) | inactive: 14.8% | 
O=C(c1ccccc1-c1nc(-c2ccccc2Cl)no1)N1CCOCC1 | inactive: 1.2% | 
COc1ccc(C(=O)C2CCCN(Cc3nc4ccccc4nc3C)C2)cc1OC (centres undefined) | inactive: -4.55% | 
Cc1cc(C)nc(SCC(=O)NC(=O)c2ccccc2O)n1 | inactive: 12.1% | 
CCOC(=O)c1c(C)[nH]c(C(=O)OC)c1CCC(=O)OC | inactive: 37.3% | 
COc1cc(NS(=O)(=O)c2ccc(NC(=O)/C=C/c3cccc([N+](=O)[O-])c3)cc2)ncn1 | inactive: -5.84% | 
C=C(C)C(=O)Nc1ccc2c(c1)OCCOCCOCCO2 | inactive: 2.56% | 
COc1ccc(C(=O)N2CCCCCC2)cc1OC1CCN(C(C)=O)CC1 | inactive: 8.32% | 
O=C(COC(=O)c1cccnc1Cl)NCc1ccc2c(c1)OCO2 | inactive: 5.49% | 
Cc1c(NC(=O)CCc2ccc(S(=O)(=O)N3CCOCC3)cc2)c(=O)n(-c2ccccc2)n1C | inactive: 7.47% | 
O=C(O)Cn1c(Cc2ccccc2)nc2ccccc21 | inactive: -0.723% | 
CCOC(=O)c1c(C)n(S(=O)(=O)c2ccc(C)cc2)c2ccc(O)c(C(=O)O)c12 | inactive: -11.1% | 
